pIC50: −log10 of the molar value. For some of these results: Part of at least one peptide drawing is inferred or uncertain, most often the ends. For some of these results: At least one compound was matched to its structure with a doubt left. Numbered stars: 1 amine (or outer) side, 2 acyl side, 3 side chain; on linkers, the order of the positions; unused ones are H or OH. Bridge positions count the residues as written; N and C are the ends. Square brackets hold non-standard residues; d marks the D form. Peptide text beside a SMILES is read from it. I, II: the chains in the order shown. X1 = O=C(CCOCCOCCOCCOCCOCCOCCOCCOCCOCCOCCOCCOCCOCCOCCOCCOCCOCCOCCOCCOCCOCCOCCOCCOCCOCCOCCC(=O)[*:2])[*:1]; Phe(4-tBu) = CC(C)(C)c1ccc(C[C@H](N)C(=O)O)cc1; Diglycolyl = O=C(COCC(=O)[*:2])[*:1]; NMeR = CN[C@@H](CCCNC(=N)N)C(=O)O; NMeK = CN[C@@H](CCCCN)C(=O)O; Pen = CC(C)(S)[C@H](N)C(=O)O
What was measured:
Assay type in all cases: cell-based
α4β7 [1] = target: α4β7 (Homo sapiens, UniProt P13612+P26010); test: PBMC Memory T Cell Adhesion Assay, adhesion to MAdCAM-1; conditions: Table 3-B; range classes
Procedure: Fresh CD4+/CD45RO+ memory T cells were isolated from human peripheral blood mononuclear cell (PBMC) donors by Aragen Bioscience Inc. (Morgan Hill, Calif.). The assay plate was prepared using IgG Fc capture antibody (donkey anti human) immobilized at 500 ng/well in 50 mM sodium bicarbonate buffer, pH 9.5, ON, 4C onto a Greiner Fluotrac plate (100 ul per well). The plate was rinsed two time with Blocking Buffer (25 mM Tris HCl, pH7.5, 150 mM NaCl, 1.5% BSA, 0.05% Tween), and blocked with Blocking Buffer for 2 hours at 37 C or 5 hours at RT using 200 ul per well. The Blocking Buffer was removed and either MAdCAM-1 or VCAM-1 at 400 ng/well in Blocking Buffer was added and the plate incubated overnight at 4C (100 ul per well). The plate was washed two times with Blocking Buffer, and rinsed once with 200 ul Binding Media (DMEM phenol red free, 10 mM HEPES, 1×Na pyruvate, 1× Glutamine, and supplemented with 1 mM MnCl2 prior to use). To prepare cells, approximately 25 million CD4+/CD45RO+ memory T cells were counted by trypan blue exclusion using a haemocytometer to determine viability and cell count. […] Fluorescence intensity was measured using a Molecular Devices Gemini EM Fluorescent Plate Reader (Ex 485/Em530, Bottom Read, Reading Sensitivity=20). IC50 curves are generated using Graph Pad Prism and the curves analyzed using analyzed using a non-linear regression (four parameters) algorithm. […]

α4β1 = α4β1 (Homo sapiens, UniProt P05556+P13612); test: α4β1-VCAM Cell Adhesion Assay (Jurkat E6.1 human cells); parameters: host or cells: Jurkat E6.1 human T cells; conditions: Table 4-B
Procedure: Jurkat E6.1 human cells (Sigma #88042803) were cultured in RPMI 1640 HEPES medium (Invitrogen #22400-089) supplemented with 10% serum (Fetal Bovine Serum, Invitrogen #16140-071), 1 mM sodium pyruvate (Invitrogen #11360-070), 2 mM L-glutamine (Invitrogen #25030-081) and Penicillin-Streptomycin (Invitrogen #15140-122) at 100 units of penicillin and 100 μg of streptomycin per ml. The cells were washed two times in DMEM medium (ATCC #30-2002) supplemented with 0.1% BSA, 10 mM HEPES pH 7 and 1 mM MnCl2. The cells were re-suspended in supplemented DMEM medium at a density of 4×10^6 cells/ml.
A Nunc MaxiSorp plate was coated with rh VCAM-1/CD106 Fc chimera (R&D #862-VC) at 400 ng per well in 50 ul per well in 1×PBS and incubated at 4° C. overnight. The solution was then removed by shaking, blocked with 250 ul per well PBS containing 1% BSA, and incubated at 37° C. for 1 hr. The solution was removed by shaking. Peptides were diluted by serial dilution in a final volume of 50 ul per well (2× concentration). To each well, 50 ul of cells (200,000 cells) were added and the plate was incubated at 37° C., 5% CO2 for 30-45 min to allow cell adhesion. […] The plate was shaken for 5 min and the absorbance at 570 nm was measured. To calculate the dose response, the absorbance value of control wells not containing cells was subtracted from each test well.

α4β7 [2] = target: T1, α4β7 (Mus musculus, UniProt P26011+Q00651); test: α4β7 Cell Adhesion Assay (Mouse), TK1 cells; conditions: Table 4-B
T1 construct: host or cells: TK1 mouse T cells
Procedure: TK1 cells (ATCC # ATCC-CRL-2396) were cultured in RPMI 1640 with 2 mM L-glutamine adjusted to contain 1.5 g/L sodium bicarbonate, 4.5 g/L glucose, 10 mM HEPES, and 1.0 mM sodium pyruvate (ATCC#30-2001) and supplemented with 0.1 mM non-essential amino acids, (ATCC #30-2116) 0.05 mM 2-mercaptoethanol (Invitrogen #21985) and 10% serum (Fetal Bovine Serum, Invitrogen #16140-071), and Penicillin-Streptomycin (Invitrogen #15140-122) at 100 units of penicillin and 100 μg of streptomycin per ml. The cells were washed two times in DMEM medium (ATCC #30-2002) supplemented with 0.1% BSA, 10 mM HEPES pH 7 and 1 mM MnCl2. The cells were re-suspended in supplemented DMEM medium at a density of 4×10^6 cells/ml.
A Nunc MaxiSorp plate was coated with Recombinant human MAdCAM-1 Fc Chimera (R&D #6065-MC) at 200 ng per well in 100 μl per well in 1×PBS and incubated at 4° C. overnight. The solution was then removed by shaking, blocked with 250 ul per well PBS containing 1% BSA, and incubated at 37° C. for 1 hr. The solution was removed by shaking. DATK 32 (anti-mouse α4β7) and peptides were diluted by serial dilution in a final volume of 50 ul per well (2× concentration). […] The plate was shaken for 5 min and the absorbance at 570 nm was measured. To calculate the dose response, the absorbance value of control wells not containing cells was subtracted from each test well.

Sequence of α4β1 (P13612 34-1032): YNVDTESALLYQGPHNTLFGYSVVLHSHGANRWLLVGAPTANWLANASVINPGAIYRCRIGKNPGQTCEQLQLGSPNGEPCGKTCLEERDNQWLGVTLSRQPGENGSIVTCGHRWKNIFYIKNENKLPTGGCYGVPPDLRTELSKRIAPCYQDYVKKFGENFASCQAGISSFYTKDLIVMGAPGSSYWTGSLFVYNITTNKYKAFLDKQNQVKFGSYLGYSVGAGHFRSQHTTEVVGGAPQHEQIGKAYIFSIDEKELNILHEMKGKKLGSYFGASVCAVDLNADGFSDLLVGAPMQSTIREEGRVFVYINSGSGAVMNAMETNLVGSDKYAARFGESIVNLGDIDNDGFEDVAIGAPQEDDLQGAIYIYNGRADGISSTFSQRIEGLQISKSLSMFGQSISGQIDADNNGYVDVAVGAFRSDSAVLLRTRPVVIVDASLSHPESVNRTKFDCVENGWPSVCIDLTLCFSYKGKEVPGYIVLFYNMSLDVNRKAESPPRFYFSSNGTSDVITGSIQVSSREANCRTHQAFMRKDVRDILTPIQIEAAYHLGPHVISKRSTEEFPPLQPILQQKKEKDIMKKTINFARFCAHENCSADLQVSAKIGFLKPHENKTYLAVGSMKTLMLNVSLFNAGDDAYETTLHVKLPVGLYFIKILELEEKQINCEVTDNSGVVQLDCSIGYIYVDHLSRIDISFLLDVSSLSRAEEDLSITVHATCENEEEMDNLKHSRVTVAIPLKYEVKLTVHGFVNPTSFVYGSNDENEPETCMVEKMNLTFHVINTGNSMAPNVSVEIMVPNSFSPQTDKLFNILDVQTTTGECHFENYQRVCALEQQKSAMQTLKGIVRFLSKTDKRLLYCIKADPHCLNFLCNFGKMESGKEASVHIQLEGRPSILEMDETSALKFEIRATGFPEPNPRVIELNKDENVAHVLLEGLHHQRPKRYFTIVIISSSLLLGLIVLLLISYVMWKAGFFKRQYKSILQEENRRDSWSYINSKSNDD
Sequence of α4β1 (P05556 21-798): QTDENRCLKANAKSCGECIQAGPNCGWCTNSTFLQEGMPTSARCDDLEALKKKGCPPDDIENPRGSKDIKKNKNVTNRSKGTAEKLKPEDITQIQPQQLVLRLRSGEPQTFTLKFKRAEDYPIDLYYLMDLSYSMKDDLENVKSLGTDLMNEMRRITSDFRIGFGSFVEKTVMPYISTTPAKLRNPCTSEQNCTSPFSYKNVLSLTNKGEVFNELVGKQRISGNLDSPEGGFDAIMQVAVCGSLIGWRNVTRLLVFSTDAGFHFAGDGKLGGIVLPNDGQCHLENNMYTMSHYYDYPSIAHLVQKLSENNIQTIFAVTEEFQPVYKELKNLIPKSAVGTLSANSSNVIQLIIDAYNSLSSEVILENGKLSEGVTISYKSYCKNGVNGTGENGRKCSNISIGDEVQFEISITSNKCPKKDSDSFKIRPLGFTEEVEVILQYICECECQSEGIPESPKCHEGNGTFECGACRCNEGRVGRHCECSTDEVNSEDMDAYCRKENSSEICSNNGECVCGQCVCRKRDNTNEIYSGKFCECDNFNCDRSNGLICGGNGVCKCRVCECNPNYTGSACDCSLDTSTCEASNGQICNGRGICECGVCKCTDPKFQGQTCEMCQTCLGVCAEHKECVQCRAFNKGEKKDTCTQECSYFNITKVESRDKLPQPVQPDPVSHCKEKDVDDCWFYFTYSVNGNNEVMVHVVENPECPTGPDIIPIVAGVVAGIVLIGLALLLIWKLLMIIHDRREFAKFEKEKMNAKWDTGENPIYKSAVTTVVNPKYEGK
T1 sequence (Q00651 34-1039 limits assumed): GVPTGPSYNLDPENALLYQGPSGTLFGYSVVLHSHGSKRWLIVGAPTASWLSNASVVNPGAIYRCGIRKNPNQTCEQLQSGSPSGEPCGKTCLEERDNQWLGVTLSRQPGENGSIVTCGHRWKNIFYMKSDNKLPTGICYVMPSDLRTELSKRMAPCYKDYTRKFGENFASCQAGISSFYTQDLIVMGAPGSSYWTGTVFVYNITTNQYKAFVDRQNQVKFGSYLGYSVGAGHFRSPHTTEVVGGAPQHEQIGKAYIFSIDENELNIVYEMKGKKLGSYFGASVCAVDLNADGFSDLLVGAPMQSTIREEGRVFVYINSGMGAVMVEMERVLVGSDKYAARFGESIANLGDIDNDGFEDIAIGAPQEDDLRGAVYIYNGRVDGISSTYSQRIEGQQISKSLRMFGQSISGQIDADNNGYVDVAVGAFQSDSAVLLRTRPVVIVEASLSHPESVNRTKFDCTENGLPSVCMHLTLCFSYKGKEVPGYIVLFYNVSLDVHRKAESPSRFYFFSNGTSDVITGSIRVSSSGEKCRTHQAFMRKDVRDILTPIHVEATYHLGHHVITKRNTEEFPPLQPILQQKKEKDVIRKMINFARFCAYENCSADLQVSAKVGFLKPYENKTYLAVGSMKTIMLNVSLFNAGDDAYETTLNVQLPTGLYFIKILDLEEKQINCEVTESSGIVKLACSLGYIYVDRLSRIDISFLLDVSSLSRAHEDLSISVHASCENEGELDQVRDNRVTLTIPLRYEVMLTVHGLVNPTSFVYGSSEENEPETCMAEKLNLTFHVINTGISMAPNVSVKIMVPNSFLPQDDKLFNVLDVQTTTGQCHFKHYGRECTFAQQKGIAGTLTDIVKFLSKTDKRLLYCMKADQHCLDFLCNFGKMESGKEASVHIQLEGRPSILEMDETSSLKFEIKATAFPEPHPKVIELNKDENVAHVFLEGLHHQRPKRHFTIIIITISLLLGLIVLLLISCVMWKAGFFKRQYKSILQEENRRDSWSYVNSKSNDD
T1 sequence (P26011 20-806): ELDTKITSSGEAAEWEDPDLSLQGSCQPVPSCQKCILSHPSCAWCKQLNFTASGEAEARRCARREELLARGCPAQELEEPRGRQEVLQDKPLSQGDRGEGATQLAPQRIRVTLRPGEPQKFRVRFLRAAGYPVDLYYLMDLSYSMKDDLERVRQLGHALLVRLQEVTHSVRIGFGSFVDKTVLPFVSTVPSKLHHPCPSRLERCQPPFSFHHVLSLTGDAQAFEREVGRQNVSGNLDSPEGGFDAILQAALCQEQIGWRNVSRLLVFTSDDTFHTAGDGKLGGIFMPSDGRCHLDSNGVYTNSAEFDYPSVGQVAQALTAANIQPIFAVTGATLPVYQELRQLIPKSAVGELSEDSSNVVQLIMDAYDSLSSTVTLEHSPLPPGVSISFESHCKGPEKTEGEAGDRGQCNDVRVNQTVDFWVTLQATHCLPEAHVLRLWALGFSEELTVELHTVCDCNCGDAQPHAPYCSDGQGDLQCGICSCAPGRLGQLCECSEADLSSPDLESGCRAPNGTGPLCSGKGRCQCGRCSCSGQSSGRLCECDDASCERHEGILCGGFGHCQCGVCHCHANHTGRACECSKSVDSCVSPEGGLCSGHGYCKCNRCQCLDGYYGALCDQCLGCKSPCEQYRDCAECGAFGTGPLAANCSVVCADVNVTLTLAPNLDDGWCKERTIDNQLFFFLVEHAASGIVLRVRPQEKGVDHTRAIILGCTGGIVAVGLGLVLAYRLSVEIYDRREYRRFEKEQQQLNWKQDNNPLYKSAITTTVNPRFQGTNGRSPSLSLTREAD
Sequence of α4β7 (Homo sapiens, UniProt P13612+P26010) (P13612 34-1032): as the sequence (P13612 34-1032) above
Sequence of α4β7 (Homo sapiens, UniProt P13612+P26010) (P26010 20-798): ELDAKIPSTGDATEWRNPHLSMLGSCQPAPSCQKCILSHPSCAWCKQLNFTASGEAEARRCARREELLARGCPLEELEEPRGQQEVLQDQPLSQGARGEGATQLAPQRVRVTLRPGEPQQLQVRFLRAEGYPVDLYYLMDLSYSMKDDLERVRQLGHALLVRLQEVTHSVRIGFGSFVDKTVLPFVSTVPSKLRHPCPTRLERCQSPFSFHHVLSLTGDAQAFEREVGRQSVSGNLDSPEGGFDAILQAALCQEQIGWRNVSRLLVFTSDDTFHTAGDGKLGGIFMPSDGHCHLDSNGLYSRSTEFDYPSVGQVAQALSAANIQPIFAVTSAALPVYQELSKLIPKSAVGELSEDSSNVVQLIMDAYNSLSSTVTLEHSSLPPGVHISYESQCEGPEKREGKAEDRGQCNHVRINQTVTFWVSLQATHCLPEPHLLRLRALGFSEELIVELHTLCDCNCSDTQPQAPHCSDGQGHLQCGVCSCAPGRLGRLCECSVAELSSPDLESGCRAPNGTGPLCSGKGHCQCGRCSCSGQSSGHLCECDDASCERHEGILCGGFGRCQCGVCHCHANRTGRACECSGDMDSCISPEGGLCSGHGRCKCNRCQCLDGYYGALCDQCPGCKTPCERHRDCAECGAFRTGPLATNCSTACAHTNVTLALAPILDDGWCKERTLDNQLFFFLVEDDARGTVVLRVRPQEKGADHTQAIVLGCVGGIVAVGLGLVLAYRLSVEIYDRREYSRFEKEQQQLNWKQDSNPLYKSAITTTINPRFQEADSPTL

## CC(=O)N[C@@H]1C(=O)N(C)[C@@H](CCCNC(=N)N)C(=O)N[C@@H](CO)C(=O)N[C@@H](CC(=O)O)C(=O)N[C@@H]([C@@H](C)O)C(=O)N[C@@H](CC(C)C)C(=O)N[C@H](C(=O)N[C@@H](Cc2ccc(C(C)(C)C)cc2)C(=O)N[C@@H](CCC(=O)O)C(=O)N(C)[C@@H](CCCCNC(=O)COCC(=O)NCCCC[C@@H](C(N)=O)N(C)C(=O)[C@H](CCC(=O)O)NC(=O)[C@H](Cc2ccc(C(C)(C)C)cc2)NC(=O)[C@H]2NC(=O)[C@H](CC(C)C)NC(=O)[C@H]([C@@H](C)O)NC(=O)[C@H](CC(=O)O)NC(=O)[C@H](CO)NC(=O)[C@H](CCCNC(=N)N)N(C)C(=O)[C@@H](NC(C)=O)C(C)(C)SSC2(C)C)C(N)=O)C(C)(C)SSC1(C)C [compound 133] (I: Ac-[Pen][NMeR]SDTL[Pen][Phe(4-tBu)]E[NMeK]-NH2 / II: Ac-[Pen][NMeR]SDTL[Pen][Phe(4-tBu)]E[NMeK]-NH2; disulfide I:1-I:7, II:1-II:7; linker I:10-II:10 via Diglycolyl)
α4β7 [1]
  pIC50: > 8.00

## CC(=O)N[C@H]1CSSC[C@@H](C(=O)N[C@@H](CCCCNC(=O)CCOCCOCCOCCOCCOCCOCCOCCOCCOCCOCCOCCOCCOCCOCCOCCOCCOCCOCCOCCOCCOCCOCCOCCOCCOCCOCCC(=O)NCCCC[C@H](NC(=O)[C@@H]2CSSC[C@H](NC(C)=O)C(=O)N(C)[C@@H](CCCNC(=N)N)C(=O)N[C@@H](CO)C(=O)N[C@@H](CC(=O)O)C(=O)N[C@@H]([C@@H](C)O)C(=O)N[C@@H](CC(C)C)C(=O)N2)C(=O)O)C(=O)O)NC(=O)[C@H](CC(C)C)NC(=O)[C@H]([C@@H](C)O)NC(=O)[C@H](CC(=O)O)NC(=O)[C@H](CO)NC(=O)[C@H](CCCNC(=N)N)N(C)C1=O [compound 200, (Ac-C-N-Me-R-S-D-T-L-C-K-OH)2-PEG25] (I: Ac-C[NMeR]SDTLCK-OH / II: Ac-C[NMeR]SDTLCK-OH; disulfide I:1-I:7, II:1-II:7 (inferred); linker I:8-II:8 via X1 (inferred))
α4β1
  pIC50: < 4.00

## CC(=O)N[C@H]1CSSC(C)(C)[C@@H](C(=O)N[C@H](CCCCNC(=O)CN(CC(=O)NCCCC[C@@H](NC(=O)[C@H]2NC(=O)[C@H](CC(C)C)NC(=O)[C@H]([C@@H](C)O)NC(=O)[C@H](CC(=O)O)NC(=O)[C@H](CO)NC(=O)[C@H](CCCNC(=N)N)N(C)C(=O)[C@@H](NC(C)=O)CSSC2(C)C)C(N)=O)C(=O)CCN)C(N)=O)NC(=O)[C@H](CC(C)C)NC(=O)[C@H]([C@@H](C)O)NC(=O)[C@H](CC(=O)O)NC(=O)[C@H](CO)NC(=O)[C@H](CCCNC(=N)N)N(C)C1=O [compound 203, (Ac-C-N-Me-R-S-D-T-L-Pen-k-NH2)2-IDA]
α4β1
  pIC50: < 4.00
α4β7 [2]
  pIC50: 6.20
